Laboratory results reported in PMC4336329 (PLoS ONE, 2015).
The campaign covered roughly 310,000 compounds. About 14,000 (4.5%) showed an effect of 50% or more. The effect is printed as a negative number. Some of the results follow.

biological target: human ether-à-go-go-related gene (hERG) potassium channel (human, UniProt Q12809); assay: primary screen, population patch clamp on CHO cells stably expressing hERG
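Note: peak tail current of the secondary pulse compared with the same well before compound.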

human ether-à-go-go-related gene (hERG) potassium channel, sequence (Q12809 whole entry, looked up): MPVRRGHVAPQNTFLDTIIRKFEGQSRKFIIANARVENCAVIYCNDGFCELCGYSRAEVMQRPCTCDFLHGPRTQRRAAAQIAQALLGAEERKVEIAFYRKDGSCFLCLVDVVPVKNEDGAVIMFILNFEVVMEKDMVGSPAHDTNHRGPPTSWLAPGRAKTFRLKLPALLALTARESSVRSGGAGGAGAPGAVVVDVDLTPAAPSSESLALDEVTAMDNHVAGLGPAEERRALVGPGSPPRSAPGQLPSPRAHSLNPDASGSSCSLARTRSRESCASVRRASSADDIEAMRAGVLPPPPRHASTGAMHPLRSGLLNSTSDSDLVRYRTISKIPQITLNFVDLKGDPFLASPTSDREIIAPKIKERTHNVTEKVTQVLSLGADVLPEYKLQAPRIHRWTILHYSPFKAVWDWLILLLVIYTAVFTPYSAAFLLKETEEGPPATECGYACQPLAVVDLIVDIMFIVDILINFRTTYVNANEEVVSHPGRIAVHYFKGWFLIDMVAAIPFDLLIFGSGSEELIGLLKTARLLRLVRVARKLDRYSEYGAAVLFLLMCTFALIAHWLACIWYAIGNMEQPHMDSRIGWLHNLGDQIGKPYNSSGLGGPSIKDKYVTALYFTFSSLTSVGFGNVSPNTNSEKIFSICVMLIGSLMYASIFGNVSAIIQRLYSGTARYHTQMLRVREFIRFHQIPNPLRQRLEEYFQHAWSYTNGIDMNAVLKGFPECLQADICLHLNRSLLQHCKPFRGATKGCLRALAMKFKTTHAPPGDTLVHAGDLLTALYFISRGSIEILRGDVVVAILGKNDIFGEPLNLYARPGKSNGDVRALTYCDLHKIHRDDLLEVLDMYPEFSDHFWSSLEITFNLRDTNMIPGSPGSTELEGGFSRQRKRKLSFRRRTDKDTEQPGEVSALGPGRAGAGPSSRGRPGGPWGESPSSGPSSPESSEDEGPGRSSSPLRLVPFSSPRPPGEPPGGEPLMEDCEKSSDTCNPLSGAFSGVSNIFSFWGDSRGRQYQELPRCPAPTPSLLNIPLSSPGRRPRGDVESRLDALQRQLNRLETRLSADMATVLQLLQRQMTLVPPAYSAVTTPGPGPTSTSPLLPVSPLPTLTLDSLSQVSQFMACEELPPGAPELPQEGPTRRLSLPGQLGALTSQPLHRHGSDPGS

Going from `O=C(NS(=O)(=O)c1ccccc1)c1ccccc1` to `Cc1sc(NC(=O)c2ccccc2)c(C#N)c1-c1ccccc1`, the “hERG current change (%, negative = inhibition) at 10uM” value rises from -0.567% to 14.7%.

Going from `COc1ccccc1NS(=O)(=O)c1ccc(C(=O)N2CCN(c3ccccc3O)CC2)cc1` to `CCOc1ncccc1C(=O)N1CCN(c2cc(Cl)ccc2C)CC1`, the “hERG current change (%, negative = inhibition) at 10uM” value rises from -14% to -4.75%.

Going from `COc1ccc(NC(=S)NCc2cccs2)cc1OC` to `COc1ccc(CCNC(=O)c2ccc(C)s2)cc1OC`, the “hERG current change (%, negative = inhibition) at 10uM” value falls from 32.5% to 11.1%.

First: Cc1c(CCC(=O)N[C@@H](C)C(=O)O)c(=O)oc2cc3oc4c(c3cc12)CCCC4
Second: COc1ccccc1NC(=O)Cn1cnc2c(oc3nc4c(cc32)CCCC4)c1=O
The “hERG current change (%, negative = inhibition) at 10uM” value of the first is higher: 12.2% for the first, -24.9% for the second.

First: Cc1ccc(NC(=S)N(CCN(C)C)C(C)c2cccnc2)cc1 (stereo not drawn)
Second: Cc1ccc(NC(=O)NCc2cccnc2)cc1
The “hERG current change (%, negative = inhibition) at 10uM” value of the first is lower: -41.8% for the first, -25.1% for the second.

Going from `COC(c1ccccc1)c1nnc(CCC(=O)N(C)C(C2CC2)C2CC2)o1` (stereo not drawn) to `COc1ccccc1CNC(=O)c1cc(C)nc2ccccc12`, the “hERG current change (%, negative = inhibition) at 10uM” value rises from -7.83% to 12%.

Going from `O=C1CN(O)C(c2ccccc2)=c2cc(Cl)ccc2=N1` to `Cn1c(Cn2nnc(-c3ccccc3)n2)nnc1SCc1ccccc1Cl`, the “hERG current change (%, negative = inhibition) at 10uM” value falls from -0.189% to -34.4%.

First: O=C(Nc1nc(N2C(=O)c3ccccc3C2=O)n(-c2ccccc2)n1)c1ccccc1
Second: Cc1ccc(S(=O)(=O)NNC(=O)c2cnn(-c3ccccc3)c2C(F)(F)F)cc1
The “hERG current change (%, negative = inhibition) at 10uM” value of the first is lower: -19.3% for the first, 10.3% for the second.

First: CC(=O)N1CCC(=O)N(C(C)C)c2ccccc21
Second: CC1(C)CC(=O)c2cc(C(=O)O)c(=O)n(-c3ccccc3)c2C1
The “hERG current change (%, negative = inhibition) at 10uM” value of the first is lower: 3.9% for the first, 13.2% for the second.

Compared with `CCCCN=C[C@]12CCC(O)CC1(O)CCC1[C@@H]2CC[C@]2(C)[C@H](C3C=CC(=O)O3)CCC12O` (stereo partly drawn), `CC(C)CC1NC(=O)N(CC(=O)Nc2ccc3c(c2)CCC3)C1=O` (stereo not drawn) is lower in “hERG current change (%, negative = inhibition) at 10uM” value: 5.59% for the first, 0.892% for the second.

Going from `COC(=O)c1ccccc1Oc1ccc(NC(=O)c2ccco2)cc1` to `COc1ccc(NC(=O)c2cccc(-c3ccc(O)cc3)c2)cn1`, the “hERG current change (%, negative = inhibition) at 10uM” value rises from -21.3% to 8.89%.

First: CCNS(=O)(=O)c1ccc(NC(=O)c2ccc(Cn3cc(Br)cn3)o2)cc1
Second: CN(CC(=O)NNC(=O)CCNS(=O)(=O)c1ccccc1)S(=O)(=O)c1ccc(Cl)cc1
The “hERG current change (%, negative = inhibition) at 10uM” value of the first is lower: -45.5% for the first, -17.8% for the second.

Going from `COc1ccc2oc(C(=O)N(C)Cc3ccc4c(c3)OCCO4)c(C)c2c1` to `O=C(CCCCCN1C(=O)c2ccccc2C1=O)Nc1ccc2c(c1)OCCO2`, the “hERG current change (%, negative = inhibition) at 10uM” value rises from -10.5% to -1.8%.

Going from `O=C(C1CCN(S(=O)(=O)N2CCC3(CC2)OCCO3)CC1)N1CCc2ccccc2C1` to `O=C(CCCCCn1c(=S)[nH]c2cc3c(cc2c1=O)OCO3)N1CCN(Cc2ccccc2)CC1`, the “hERG current change (%, negative = inhibition) at 10uM” value rises from -9.28% to 7.9%.

Compared with `Cc1cc2ccccc2c(=O)n1CC(=O)NCC(=O)N(C)Cc1ccccc1`, `CC(C(=O)Nc1ccccn1)N1C(=O)c2ccccc2S1(=O)=O` (stereo not drawn) is lower in “hERG current change (%, negative = inhibition) at 10uM” value: 9.2% for the first, -6.81% for the second.

Compared with `COc1cccc(C2CC(=O)NC3=C2C(=O)CCC3)c1` (stereo not drawn), `COc1cccc(OCCOCCNCCO)c1` is lower in “hERG current change (%, negative = inhibition) at 10uM” value: 9.6% for the first, -6.7% for the second.

Compared with `O=C(NNC(=O)c1cccs1)c1ccccc1`, `NC(=O)COC(=O)c1ccc(C(=O)C(=O)c2ccccc2)cc1` is lower in “hERG current change (%, negative = inhibition) at 10uM” value: 22% for the first, 11.3% for the second.

Going from `COc1ccc(C2=NN(C(=O)CSc3nnc(C)n3C)C(c3ccco3)C2)cc1` (stereo not drawn) to `Cc1nnc(NC(=O)CSc2nnc(-c3ccc(S(=O)(=O)N4CCCC4)cc3)n2C)s1`, the “hERG current change (%, negative = inhibition) at 10uM” value falls from -0.173% to -3.39%.

Compared with `Cc1nc2ccccc2cc1OCc1ccc(F)cc1`, `Cc1ccc(OCCOCCn2cnc3ccccc3c2=O)cc1C` is higher in “hERG current change (%, negative = inhibition) at 10uM” value: -0.607% for the first, -0.362% for the second.

Compared with `O=C(COC(=O)CCCCCN=C1NS(=O)(=O)c2ccccc21)Nc1ccc(Cl)c(Cl)c1`, `CCC(=NCCc1c[nH]c2ccccc12)c1c(O)n(C)c(=O)n(C)c1=O` is lower in “hERG current change (%, negative = inhibition) at 10uM” value: 11.5% for the first, -10.8% for the second.

First: CSc1ccccc1NC(=S)Nc1cccc(C(F)(F)F)c1
Second: OCC1(CCc2ccccc2)CCCN(C/C=C/c2ccccc2)C1 (stereo not drawn)
The “hERG current change (%, negative = inhibition) at 10uM” value of the first is higher: 5.6% for the first, -73.5% for the second.

Compared with `Cc1ccc(-n2ncc3c(=O)[nH]cnc32)c(C)c1`, `CCN(CC)S(=O)(=O)c1ccc2oc(C(=O)NC(C)C)c(C)c2c1` is lower in “hERG current change (%, negative = inhibition) at 10uM” value: 6.98% for the first, 0.758% for the second.

For `COC(=O)C1=C(C)OC(N)=C(C#N)C1c1cc(C)sc1C` (stereo not drawn), the “hERG current change (%, negative = inhibition) at 10uM” value was -0.682%.
